Reference: the supplement of paper PMC3334620
In all, about 33,000 sequences were measured (“E-score (-0.5 to 0.5)”: median about -0.012, highest 2% from about 0.27 on). Some of the results follow.

Molecular target: T1, Vhr1 (UniProt P40522)
T1 sequence: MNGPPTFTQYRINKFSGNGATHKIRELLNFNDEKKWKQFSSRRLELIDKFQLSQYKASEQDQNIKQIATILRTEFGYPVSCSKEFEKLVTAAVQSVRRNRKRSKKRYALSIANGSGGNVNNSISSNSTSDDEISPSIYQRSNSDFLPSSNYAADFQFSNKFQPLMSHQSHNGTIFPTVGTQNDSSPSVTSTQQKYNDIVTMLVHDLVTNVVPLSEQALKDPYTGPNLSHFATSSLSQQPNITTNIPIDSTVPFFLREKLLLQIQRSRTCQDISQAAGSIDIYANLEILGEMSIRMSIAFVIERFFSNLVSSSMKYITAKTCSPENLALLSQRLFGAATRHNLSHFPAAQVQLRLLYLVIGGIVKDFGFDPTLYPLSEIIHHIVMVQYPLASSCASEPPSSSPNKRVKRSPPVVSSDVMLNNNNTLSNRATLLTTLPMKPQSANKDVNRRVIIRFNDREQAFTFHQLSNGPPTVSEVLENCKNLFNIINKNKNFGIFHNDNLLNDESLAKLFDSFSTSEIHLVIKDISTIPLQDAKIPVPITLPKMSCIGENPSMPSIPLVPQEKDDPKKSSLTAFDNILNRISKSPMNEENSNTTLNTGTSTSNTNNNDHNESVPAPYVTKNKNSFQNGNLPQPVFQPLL
Assay: PBM E-score (8-mer binding enrichment) (E-score (-0.5 to 0.5)); higher = stronger / more preferred TF binding; most listed sequences are background and not binding sites
Details: protein concentration: 200 nM; construct: GST-full length
How it was run: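 Yeast transcription factors carrying a GST tag, as full-length proteins or DNA-binding domains, were produced by PURExpress in vitro transcription/translation. About 100-200 nM protein was applied to universal all-10-mer Agilent arrays, double-stranded by primer extension on fresh or once-stripped slides. Bound protein was detected with fluorescent anti-GST, and scans were normalised with masliner. The Universal PBM Analysis Suite gave each ungapped eight-base word, pooled with its reverse complement, an E-score, a modified Wilcoxon-Mann-Whitney statistic.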

Sequence | PBM E-score
CCACGAGC | 0.0593
AGTTTCCC | -0.0976
CGCGAAGA | 0.125
AGATATGG | 0.158
AAAGCCAA | -0.218
CCTGTAAA | -0.251
CCCTGAAA | -0.105
AGGAACGA | -0.0754
CCGACTGC | 0.126
ACTCAGCT | 0.161
ATCTGCAA | -0.13
ACTCTCGC | 0.0365
ACTGCGGA | 0.216
ACCGCGCT | 0.0474
AGAGACGC | -0.0087
CGGTTGAA | 0.0331
GTACAGGA | 0.0852
ACTGTAAT | 0.142
ACGCCGTG | -0.023
ATTCTCAC | 0.0456
CTAGAGCA | -0.0073
ATCTACTC | 0.0265
GCTATGCA | -0.157
ATCGGAGG | -0.133
ACATGCGG | 0.0698

Sequence | PBM E-score
AGTGGAGG | -0.00198
TAGAATGA | 0.111
ACCAGTCC | -0.0311
ACTTTTTG | -0.0849
GTACTACA | 0.164
ATCCCGAG | 0.152
ATTAGGCC | -0.047
GAGGAATA | 0.00618
CATGTTAA | 0.0934
GCCGCGAC | 0.157
AATCATCG | 0.334
GGGCGACA | -0.00179
CGGTCCAC | -0.21
AAGAGCCG | -0.177
GGGCACGA | -0.069
GCCCCGGC | 0.0561
AGCTACTA | -0.16
GACTTATC | 0.0234
CACTTGAC | -0.13
ATGGGGTC | 0.151
TGAGGTAA | -0.116
CGTAAACC | -0.174
CGTCAAGA | -0.159
TAGACCTA | -0.114
CTTCTTTC | -0.263

Sequence | PBM E-score
GCGCGAGA | -0.0412
GCTTAAGC | -0.176
CTCGGATA | 0.129
GATACACC | 0.197
AGGCCGGA | -0.111
ACGAACGT | -0.00894
CATAGACG | 0.0555
GAAGTCTC | -0.253
CGGAAACA | -0.174
CGAGGGCC | 0.0875
AAAGGAGG | -0.319
CAATAATC | 0.101
ATGATCAT | 0.253
CCCATTTA | -0.115
CACAAGCC | 0.0572
CGACGATC | 0.058
AACAGTGT | 0.0657
CGCGACAA | 0.113
AGCCACAT | 0.22
TAATATTA | 0.185
CCTCTCGC | -0.154
ATCGCAAT | 0.157
CCACATAA | 0.108
CGGCGCAA | 0.193
ACGTCACT | 0.0346

Sequence | PBM E-score
CTCACTTC | -0.174
GATTTGGC | 0.051
ATGCCCGA | -0.0291
AGCATAGA | -0.148
AAATCTCA | -0.0456
TGACCGCA | 0.0423
CAGAATAC | 0.00767
CTCGAAGA | -0.00973
ATCTAGAC | 0.0811
GTCTGAGA | -0.122
GACTTCCA | 0.0249
CATCTCAA | -0.109
AGCAAATC | 0.109
GGAGAGGA | -0.166
AGGGTCAC | -0.0656
CCAATCCG | 0.122
GAGGGTTA | -0.0982
TAAATGTA | -0.0311
CCCCGCAC | 0.0391
AATGTAAC | -0.0159
CAGATACG | 0.0421
AAACGCCT | -0.21
AGATATGA | 0.161
CCACGTCA | -0.165
GATCGTGA | -0.068

Sequence | PBM E-score
AGATGTTA | -0.11
TGAATTCA | 0.239
AAAAAGTT | -0.131
GGACATCA | -0.0918
CGAGTGAA | -0.0318
GAAATGTA | -0.0556
CGTCTGCA | -0.0976
CGCTCAGC | -0.0369
GAGGGTCC | -0.139
AACTCATG | 0.254
AATTGCAG | -0.113
ACGGCACG | -0.0298
CGTATGTA | 0.091
TACTCACA | 0.285
CGTCGTAG | -0.00749
CGAGCGAA | -0.0708
TTGCCCAA | -0.237
GTCGAGAC | 0.111
CCTTGACC | -0.111
GGCGAGAA | -0.0462
AGTCCGTG | -0.0538
CTGAACTA | -0.154
CCTACCTA | -0.0935
AAAGCCGA | -0.118
CAGAGCCC | -0.158

Sequence | PBM E-score
CCGTGGGA | -0.144
CATGATCC | 0.213
GCGCCGAA | 0.12
ACCCAGCC | -0.00027
GGCGGTCA | -0.156
TAGTTAAA | 0.0419
CATTCTCG | -0.0764
CCATGGGC | 0.221
GCCGACCC | -0.199
ACTGTTGC | 0.0704
GAGTCAAA | 0.312
AGCTAAGA | -0.0284
ACGTCATC | -0.199
CGCCCATA | 0.124
TAGTCAGA | 0.258
GCCGTGTA | -0.0705
ATTGATAC | 0.198
CACATAAA | -0.0385
GGTGTGAC | 0.189
CAACACTC | 0.0881
ACGACCAG | 0.0585
TGTATTAA | 0.189
ACCTCTAA | -0.202
AGGCTGGG | -0.184
CGATATTC | -0.073

Sequence | PBM E-score
AATACATG | 0.169
ACGCGCGC | 0.107
AAACCCCA | -0.078
CTATCAGA | 0.119
CTGTGGTC | 0.123
AGCATTAA | 0.0645
GCAAGAGA | -0.162
GGCGGTTA | 0.157
GCTCGTAC | 0.124
ACCGATTC | -0.0343
GAATCATC | 0.437
CATCTGAA | 0.0775
AGTCAGGC | 0.404
CGTCGTCA | 0.0838
TCGAACCA | 0.00961
CTGTGATA | 0.07
ATCCGAAT | 0.261
ATAGACTG | 0.0961
CGAAACTC | -0.163
CCGGAACG | -0.0334
AAGGATCT | -0.118
AGCAGGAA | -0.181
